Test results published in PubChem BioAssay AID1963576 (National Center for Advancing Translational Sciences (NCATS), 2024).
About 60 (0.1%) of roughly 46,000 compounds were called active. Not shown: some 3% with an inconclusive outcome. Calls follow the shape of the dose curve; as a rule, active = well fitted inhibition curve with a large enough effect; inconclusive = small, poorly fitted or top-dose-only effect; inactive = no such curve, though single readings can be large or run the other way. The list shows a part of the results.

assay: Primary qHTS assay for Inhibitors of ovarian cancer metastasis using an organotypic tumor microenvironment (TME) model.; also: nearly all actives have a fitted effect of over 65% in size;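 as to activity change, negative = inhibition: plate controls were DMSO wells for no effect and tomatine positive control wells for full effect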; settings: SKOV3ip1-GFP adhesion/invasion on 3D omental model, fluorescence; series mostly up to 45.8 µM; activity change, negative = inhibition: at the top concentration
Summary of the method: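 Adhesion/invasion was scored as fixed GFP-labeled SKOV3ip1 cell counts (488/509 nm), normalized to DMSO and tomatine controls. Cancer cells in serum-free medium, with four compound doses (0.36-46 umol/L), sat 2 hr at RT then 16 hr at 37 C on a 48 hr fibroblast/mesothelial/ECM culture.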

Row | SMILES | activity change, negative = inhibition | outcome
1 | COc1ccc(NC(=O)CSc2nc(-c3ccc(F)cc3)[nH]c2-c2ccc(C)cc2)cc1OC | inactive: -3.03% | 
2 | COc1ccc(S(=O)(=O)c2c(O)c3ccc(C(=O)NCc4ccc(F)cc4)cc3[nH]c2=O)cc1 | inactive: -8.29% | 
3 | COc1cc(C2CC(=O)Nc3c2c(C)nn3-c2nncc(-c3ccc(C)cc3)n2)cc(OC)c1OC (stereo unspecified) | inactive: 9.63% | 
4 | Cc1ccc2c(CC(=O)Nc3c(C(=O)c4ccc(C)c(F)c4)oc4ccccc34)coc2c1 | inactive: -11.3% | 
5 | CCOc1ccc(NC(=O)c2cnc3ccccn3c2=O)cc1 | inactive: -1.98% | 
6 | O=S(=O)(c1ccc(Cl)cc1)c1nc(-c2ccco2)oc1SCc1ccc(F)cc1 | inactive: 5.94% | 
7 | COc1ccccc1NC(=O)CCCc1nnc2n(C)c(=O)c3sccc3n12 | inactive: 9.71% | 
8 | CCOC(=O)c1cc(S(=O)(=O)NCc2ccc(C)cc2)[nH]n1 | inactive: 9.55% | 
9 | CCOc1ccc(CCNC(=O)c2ccc3c(c2)c(C)c(C)n3Cc2ccccc2)cc1OCC |  | inactive
10 | O=C(Nc1ccc(Oc2ccccc2)cc1)C1CCN(S(=O)(=O)c2ccc(Cl)cc2)CC1 | inactive: -0.589% | 
11 | COc1ccc(NC(=O)CN(c2cc(C)cc(C)c2)S(=O)(=O)c2c(C)noc2C)cc1Cl | inactive: 7.77% | 
12 | Fc1cccc(-n2ncc3c2ncn2nc(Cc4ccccc4)nc32)c1 |  | inactive
13 | COc1ccccc1CNC(=O)CCC1N=C2c3ccccc3N=C(SCc3ccc(C)cc3C)N2C1=O (stereo unspecified) | inactive: 2.29% | 
14 | Cc1ccc2nc3sc(C(=O)NCCCN(C)c4ccccc4)cc3cc2c1 |  | inactive
15 | CC(C)(C)OC(=O)N1CCC(c2nnc(SCc3cccc(Cl)c3)o2)CC1 | inactive: 22% | 
16 | Cc1ccc(CNC(=O)CN2C(=O)COc3ccc(S(=O)(=O)Nc4ccccc4)cc32)cc1 | inactive: -4.44% | 
17 | CC(C)NC(=O)c1nn(-c2ccccc2F)nc1CO |  | inactive
18 | COc1ccc(NC(=O)CSc2ccc3nc(-c4ccccc4)cn3n2)cc1OC | inactive: -15.1% | 
19 | Cc1ccccc1Nc1c(-c2ccc(N3CCOCC3)cc2)nc2ccccn12 | inactive: -6.12% | 
20 | COc1ccc(-c2nc(SCC(=O)Nc3ccc4c(c3)OCCO4)c(-c3ccc(C)cc3)[nH]2)cc1OC | inactive: -7.17% | 
21 | Cc1ccc(C(=O)NC2=NC(c3ccc(C)cc3)CC(=O)N2)cc1 (stereo unspecified) | inactive: -8.07% | 
22 | Cc1ccc2c(c1)-c1ncc(C(=O)c3ccccc3O)cc1CO2 |  | inactive
23 | Cc1cc(C)cc(NC(=O)CSc2nc(-c3ccccc3)c3cc(F)ccc3n2)c1 |  | inactive
24 | CCc1ccc(NC(=O)CC2C(=O)N(c3cccc(OC)c3)C(=O)N2C2CCCC2)cc1 (stereo unspecified) | inactive: 9.15% | 

Row | SMILES | activity change, negative = inhibition | outcome
25 | CCCCCOC(=O)CSc1ncnc2sc3c(c12)CCC(C)C3 (stereo unspecified) |  | inactive
26 | Cc1cc(C)cc(NC(=O)c2cc(CN3CCCC3)on2)c1 | inactive: 5.15% | 
27 | CC(=O)c1ccc(NC(=O)c2cc3sccc3n2Cc2ccc(F)cc2)cc1 |  | inactive
28 | CCOCCCNC(=O)C1CCN(C(=O)c2cc3sccc3n2C)CC1 | inactive: -0.887% | 
29 | COc1ccc(CCNC(=O)CCCn2c(=O)c3cccn3c3ccccc32)cc1OC | inactive: -0.904% | 
30 | Cc1cc2c(cc1NC(=O)c1ccccc1C)n(C)c(=O)c(=O)n2C | inactive: 10.7% | 
31 | CCC(Cc1ccccc1)NC(=O)CN1C(=O)COc2ccc(S(=O)(=O)N3CCCCCC3)cc21 (stereo unspecified) | inactive: 8% | 
32 | COc1ccccc1N1CCN(C(=O)C2CCN(S(=O)(=O)Cc3ccccc3)CC2)CC1 | inactive: 6.98% | 
33 | O=C(COc1ccccc1)OCc1cc(=O)n2nc(C3CC3)sc2n1 |  | inactive
34 | COc1cc(-c2nnc(SCCOc3ccc(Cl)cc3)o2)cc(OC)c1OC |  | inactive
35 | CC(C)CCN(Cc1ccco1)C(=O)c1cc2c(s1)-c1ccccc1OC2 | inactive: 1.02% | 
36 | CCc1ccc2oc(C(=O)Nc3cccc(Cl)c3C)cc(=O)c2c1 | inactive: 2.25% | 
37 | CCc1ccc(CNC(=O)CCCN2C(=O)CCn3nc(-c4cccn4C)cc32)cc1 |  | inactive
38 | COc1ccc(NC(=O)CCCN2C(=O)C(c3ccccc3)Oc3cccnc32)c(OC)c1 (stereo unspecified) |  | inactive
39 | COCc1nn2cc(-c3ccc(C)cc3)nc2s1 | inactive: 6.56% | 
40 | Cc1ccc(C(=O)Nc2cc(-c3nc4ncccc4o3)ccc2C)c(C)c1 | inactive: -4.31% | 
41 | Cc1cccc(N2CCN(C(=O)Cc3c(C(=O)O)c(C)cn3C)CC2)c1C | inactive: 0.163% | 
42 | Cc1ccc(C(=O)c2c(N)c(-c3nc(-c4ccc5c(c4)OCO5)cs3)c3ccccn23)cc1C | inactive: 2.39% | 
43 | COC(=O)c1ccc(Cn2cnc3nc4c(cc3c2=O)CCCC4)cc1 | inactive: -5.26% | 
44 | CC(=O)N1CCc2c(sc3c2c(=O)n(Cc2ccccc2)c(=O)n3Cc2ccc(C)cc2)C1 |  | inactive
45 | CCOC(=O)c1c(C)oc2ncnc(Nc3ccc(OC)cc3OC)c12 |  | inactive
46 | COc1ccccc1NC(=O)CSC1=Nc2ccccc2C2=NC(CCC(=O)NCCc3ccccc3)C(=O)N12 (stereo unspecified) |  | inactive
47 | CCOc1ccccc1NC(=O)Cn1ncc2c(=O)oc3ccc(C)cc3c21 | inactive: 2.41% | 
48 | CCOc1ccccc1CNC(=O)C1CCN(S(=O)(=O)c2ccc3[nH]c(=O)ccc3c2)CC1 |  | inactive

Row | SMILES | activity change, negative = inhibition | outcome
49 | COc1ccc(-c2noc(CSc3nnc(C)n3-c3ccc(C)cc3)n2)cc1OC |  | inactive
50 | CN1C(=O)Cc2cc(S(=O)(=O)NCCc3ccc(Cl)cc3)ccc21 |  | inactive
51 | Cc1ccc(C(=O)N2CCc3cc(CNS(=O)(=O)c4cccs4)ccc32)cc1 | inactive: -9.52% | 
52 | COc1ccc(N2CCN(C(c3ccccc3)c3sc4nc(-c5ccco5)nn4c3O)CC2)cc1 (stereo unspecified) |  | inactive
53 | O=C(Nc1nc2c(s1)CCCCCC2)Nc1ccc(F)cc1F | inactive: 1.2% | 
54 | CCOc1ccccc1C(=O)NC1(C(F)(F)F)NC(=O)N(CCc2ccc(OC)c(OC)c2)C1=O (stereo unspecified) | inactive: 0.146% | 
55 | Cc1nc2ccn(Cc3ccccc3)c(=O)c2cc1C(=O)N1CCN(c2ccccc2F)CC1 | inactive: 56.6% | 
56 | Cc1cccc(C2C=C(c3ccc(C)c(C)c3)Nc3nnnn32)c1 (stereo unspecified) | inactive: -4.97% | 
57 | O=C(CSCc1cnn(-c2ccccc2)c1-n1cccc1)NCc1ccc(Cl)cc1 | inactive: -5.95% | 
58 | CCCOc1ccc(NC(=O)CC2C(=O)N(c3cccc(OC)c3)C(=O)N2Cc2cccs2)cc1 (stereo unspecified) | inactive: 12.1% | 
59 | COc1ccccc1N1CCN(C(=O)c2cn(CC(C)C)c(=O)c3c2c2ccccc2n3C)CC1 | inactive: -8.52% | 
60 | O=C(Nc1nnc(S(=O)(=O)N2CCCc3ccccc32)s1)c1ccccc1Cl | inactive: 3.73% | 
61 | CCCOc1ccc(CN(C(=O)Cc2coc3ccc(CC)cc23)C2CCS(=O)(=O)C2)cc1 (stereo unspecified) | inactive: -14.5% | 
62 | CCCn1c(=O)sc2cc(NC(=O)c3ccc(OC)c(Br)c3)ccc21 |  | inactive
63 | CC(C)CC(NS(=O)(=O)c1ccc2c(c1)oc(=O)n2C)C(=O)NCc1ccccc1Cl (stereo unspecified) |  | inactive
64 | CCc1nn2c(=O)cc(COC(=O)CNC(=O)COc3ccc(C)cc3)nc2s1 |  | inactive
65 | COc1ccc(NC(=O)c2c(NCc3sccc3C)sc3c2CCCC3)c(OC)c1 | inactive: -6.94% | 
66 | Cc1ccc(-n2nc(CO)c(C(=O)NC(C)CCCc3ccccc3)n2)cc1 (stereo unspecified) |  | inactive
67 | Cc1cn(C)c(CC(=O)N2CCN(c3cccc(Cl)c3)CC2)c1C(=O)O | inactive: 2.74% | 
68 | COc1ccc(Nc2nc(N)nc(N)c2S(=O)(=O)c2ccccc2)cc1 |  | inactive
69 | Cc1ccc(NC(=O)CN2CCN(S(=O)(=O)c3ccc(C(C)C)cc3)CC2)cc1F | inactive: 8.52% | 
70 | O=c1c2ccccc2n(Cc2ccccc2Cl)c(=O)n1CCc1ccccc1 | inactive: -4.95% | 
71 | CCOC(=O)c1ccc(Nc2nc3ccc(C(=O)c4ccccc4)cc3n3c(C)nnc23)cc1 | inactive: -5.05% | 
72 | CCCN(CCC)C(=O)Cn1c(=O)n(-c2ccc(CC)cc2)c(=O)c2ccc(C(=O)NCCc3ccccc3)cc21 |  | inactive

Row | SMILES | activity change, negative = inhibition | outcome
73 | Cc1cccc(NC(=O)c2ccc3nc(C(C)C)oc3c2)c1C | inactive: -17% | 
74 | Cc1ccc(-n2cc(C(=O)Oc3cccc(C)c3)c3ccccc3c2=O)cc1 | inactive: 4.52% | 
75 | COc1cccc(NC(=O)CSC2=Nc3ccccc3C3=NC(CCC(=O)NCCc4ccccc4)C(=O)N23)c1 (stereo unspecified) |  | inactive
76 | CCOc1ccc(NC(=O)C(=O)c2cc(C)n(-c3cc(C)cc(C)c3)c2C)cc1 | inactive: -0.434% | 
77 | Cc1ccc(NC(=O)C2CCCN(S(=O)(=O)c3ccc4c(c3)oc(=O)n4C)C2)cc1Cl (stereo unspecified) | inactive: -14.2% | 
78 | COc1ccc(-c2cc(C(=O)NCCc3ccccc3)c3c(-c4ccccc4)[nH]nc3n2)cc1OC | inactive: -17.6% | 
79 | CCCOc1ccc(C(=O)OCCN(CC)CC)cc1N | inactive: 9.42% | 
80 | COc1ccc(CCNC(=O)c2ccc3c(c2)CCN3S(=O)(=O)c2ccc(C)cc2)cc1 | inactive: -0.0706% | 
81 | COc1cc(Cl)c(NC(=O)CCS(=O)(=O)c2ccc3c(c2)NC(=O)CO3)c(OC)c1 | inactive: -0.471% | 
82 | CCCCCOc1ccc(Cn2c(=O)oc3ccccc32)cc1 |  | inactive
83 | COc1ccccc1CCNC(=O)C(=O)NCC(c1cccs1)S(=O)(=O)c1cccs1 (stereo unspecified) | inactive: -2.19% | 
84 | Cc1ccc(/C=C/c2onc(C)c2S(=O)(=O)N2CCC(C(=O)Nc3cc(C)ccc3C)CC2)cc1 |  | inactive
85 | CCOc1ccc(S(=O)(=O)Nc2cccc(-c3ccc(OCC)nn3)c2)cc1 | inactive: 6.9% | 
86 | Cc1cccc(NC(=O)COC(=O)CCCC2=NS(=O)(=O)c3ccccc3N2)c1 |  | inactive
87 | O=C(Nc1ccc(S(=O)(=O)N2CCCCC2c2cccnc2)cc1)c1ccc(Br)cc1 (stereo unspecified) | inactive: -24.5% | 
88 | Cc1cc(C)c2oc(C(=O)Nc3ccc(S(=O)(=O)N4CCCCCC4)cc3)cc(=O)c2c1 | inactive: 0.561% | 
89 | Cc1cccc(NC(=O)c2c(C)cc(C)nc2SCC(=O)c2ccccc2)c1 | inactive: 0.788% | 
90 | COc1ccc(S(=O)(=O)c2cn(C)c3ccc(C)cc3c2=O)cc1 | inactive: 4.6% | 
91 | O=C(Nc1ccc(F)cc1C(F)(F)F)C1CCN(c2ncccn2)CC1 | inactive: 32% | 
92 | O=C(C1CCCN(S(=O)(=O)c2cccc3nsnc23)C1)N1CCN(c2ccccc2F)CC1 (stereo unspecified) |  | inactive
93 | CCC(C)NC(=O)CSc1nc2n[nH]c(C)c2c(=N)n1-c1cc(Cl)ccc1C (stereo unspecified) | inactive: -3.41% | 
94 | CC(C)c1ccc(NC(=O)c2ccc(F)c(S(=O)(=O)N3CCc4ccccc43)c2)cc1 | inactive: -5.82% | 
95 | COc1ccccc1NC(=O)c1sc2nc(C)c(C(=O)Nc3ccc(C)cc3C)c(-c3ccco3)c2c1N | inactive: -26.8% | 
96 | CCC1=Nc2cc(C(=O)NC3CCC(C)CC3)ccc2Sc2ccc(C)cc21 (stereo unspecified) | inactive: 2.56% | 
